Data on 88 compounds can be found in PubChem BioAssay AID463173 (ICCB-Longwood Screening Facility, Harvard Medical School, 2010).

Screen size: about 52,000 compounds; about 1,700 (3.3%) were called active. Rule as the data show it: active = survival mostly below about 52% (no sharp cut-off); inactive = mostly above about 56%. The list shows a part of the results.

In the test the test system is Wild type. Nature of the test: S. aureus survival, RN4220 and DeltatarO strains – OD600, teichoic acid synthesis inhibitors, primary screen (AID 463173). As to conditions: S. aureus RN4220 wild type/DeltatarO growth, OD600, 18 h, stronger effect = lower value, screened at 18.75 µg/mL (by protocol).
In the case of `COc1cccc(CNC(=O)Cn2c(=O)ccc3cc(S(=O)(=O)N4CCC(C)CC4)ccc32)c1`, the survival is inactive: 80%.
Consider `COc1cccc(C(=O)NCc2ccc3c(c2)CCN3C(=O)c2ccncc2)c1`, for which the survival was inactive: 69%.
Next, `COc1ccc(-n2c3c(c(=O)[nH]c2=O)C(NC(=O)c2ccccc2Cl)(C(F)(F)F)C(=O)N3)cc1` (stereo not drawn): inactive: 67%; `COc1ccccc1-c1nc(SCC(=O)c2ccccc2)n[nH]1`: inactive: 77%; `COc1ccc(-c2[nH]c(-c3cccc(OC)c3)nc2SCC(=O)Nc2ccc3c(c2)OCO3)cc1`: inactive: 67%.
Next, `Cc1ccc2[nH]c3c(=O)n(N)c(C)nc3c2c1`: inactive: 115%; `COc1ccc(CNc2nc(SCc3ccc(Cl)cc3)nc3ccccc23)cc1`: inactive: 81%.
The same measure for `Cn1cccc1/C=N/NC(=O)c1ccccn1`: inactive: 105%; for `CCCCCN1C(C(=O)c2ccccc2)=C(NC(=O)c2ccc(OC)cc2)c2ccccc2S1(=O)=O`: inactive: 68%.
Consider `O=C(Nc1ccc(C(=O)N2CCN(c3cccc(Cl)c3)CC2)cc1)c1nsc2ccccc12`, for which the survival is inactive: 63%.
On to `COc1ccc(NC(=O)c2ccc(-c3nc(CSc4ccc(C)cc4)c(C)o3)cc2)cc1Cl`, for which the survival is inactive: 57%.
Next, `COc1ccc(-c2c3c(=O)n(C)c(=O)n(C)c3c3n2-c2ccccc2NC3c2ccc(OC)cc2)cc1` (stereo not drawn): active: 8%; `Cc1ccc(NC(=O)c2cc(S(=O)(=O)N(C)C3CCCCC3)ccc2F)cc1C`: inactive: 53%.
The same measure for `COc1ccccc1C(=O)Oc1c(Sc2ccccc2)c(C)nn1C(C)(C)C`: inactive: 86%.
Next, `CC(C)N(C(=O)N1CCC(c2ccccc2F)CC1)C(C)C`: inactive: 94%; `CCc1nnc(NC(=O)c2nc(S(=O)(=O)Cc3ccc(C)cc3)ncc2Cl)s1`: inactive: 57%.
`O=C(c1ccc(N2CCOCC2)cc1)c1cccs1`: the survival was inactive: 105%.
The same measure for `COC(=O)c1ccc(CSc2nc(-c3ccco3)cc(C(F)(F)F)n2)o1`: inactive: 116%; for `CCC(=O)N1CCc2cc(S(=O)(=O)NC(C(=O)NCCc3ccccc3)C(C)C)ccc21` (stereo not drawn): inactive: 83%; for `Cc1cc(C)c(NC(=O)C(C)n2c(=O)c(C(F)(F)F)nc3ccccc32)c(C)c1` (stereo not drawn): inactive: 69%.
Next, `Cc1cccc(-n2ncc(C(=O)N3CCN(C4CCCCC4)CC3)c2C2CCN(C(=O)OC(C)(C)C)CC2)c1`: inactive: 78%; `COc1ccc(OC)c2sc(NC(=O)c3ccc(S(=O)(=O)N4CCCC4)cc3)nc12`: inactive: 128%.
The same measure for `CCOC(=O)CC(NC(=O)CCc1c(C)nc2c(c(C)nn2-c2ccc(C)c(C)c2)c1C)c1ccc(C)cc1` (stereo not drawn): inactive: 123%.
Regarding `Cc1cc(C)cc(OCC(=O)Nc2nc3c(s2)CC(C(C)(C)C)CC3)c1` (stereo not drawn), the survival was inactive: 108%.
For the compound `Cc1c(Cl)cccc1NC(=O)c1cccc(NC(=O)N2CCSc3ncccc32)c1`, the survival is inactive: 59%.
With `CC(NC(=O)c1ccc2c(c1)CCN2S(C)(=O)=O)c1ccccc1` (stereo not drawn), the survival was inactive: 85%.
As for `CCOc1ccc(NC(=O)CSC2=Nc3ccccc3C3=NC(CCC(=O)NCc4ccccc4)C(=O)N23)cc1` (stereo not drawn), the survival was inactive: 88%.
Next, `Cc1ccc(CNC(=O)c2ccc3c(c2)nc(C)n3-c2cccc(F)c2)cc1`: inactive: 91%.
Next, `Cc1cc(C(F)(F)F)n2nc(-c3ccc(Br)cc3)cc2n1`: inactive: 78%.
Next, `c1ccc(C(c2nnnn2C2CCCC2)N2CCN(c3ccccc3)CC2)cc1` (stereo not drawn): inactive: 108%; `CCCCOc1ccc(-c2nn(-c3ccccc3)cc2C2NC(=O)NC(C)=C2C(=O)OCC)cc1` (stereo not drawn): inactive: 73%.
In the case of `CN1CCN(CC(=O)NCCc2ccc(F)cc2)CC1`, the survival is inactive: 105%.
Next, `O=C(c1cc2ccccc2oc1=O)N1CCN(c2ccc(Cl)cc2)CC1`: inactive: 71%; `O=C(NCCc1ccccc1)c1cnc2sc(N3CCCCCC3)nn2c1=O`: inactive: 72%.
Next, `Cc1cc2oc(C(=O)Nc3ccc(S(N)(=O)=O)cc3)cc(=O)c2cc1C`: inactive: 84%.
Next, `CCc1ccc(C(=O)c2cn(CC(=O)Nc3cccc(OC)c3)c3ccc(OC)cc3c2=O)cc1`: inactive: 77%; `COc1ccc(OCC(=O)NCc2ccc3c(c2)CCN3C(=O)c2ccccc2)cc1`: inactive: 81%; `COc1ccccc1N1CCN(c2ncnc3c2cnn3-c2cc(Cl)ccc2C)CC1`: inactive: 136%.
For `Cc1ccc(C(=O)N2c3ccc(C)cc3C(C)(c3ccccc3)CC2(C)C)cc1` (stereo not drawn), the survival was active: 2%.
Next, `CCc1cccc(NC(=O)CN2C(=O)COc3ccc(S(=O)(=O)Nc4ccccc4)cc32)c1`: inactive: 72%.
The same measure for `Cc1ccc(CSc2nc3ccc(NC(=O)COc4ccccc4)cc3s2)cc1`: inactive: 88%.
Consider `CCOC(=O)c1ccc(N2C(=O)c3[nH]nc(-c4ccc(C)cc4)c3C2c2cccc(F)c2)cc1` (stereo not drawn), for which the survival is inactive: 88%.
Next, `O=C1OC(C(=O)Nc2cccc(Br)c2)Cc2ccccc21` (stereo not drawn): inactive: 84%; `COc1ccc(CNC(=O)Cn2c(SCC(=O)Nc3ccc(OC)cc3)nc3ccccc32)cc1`: inactive: 69%.
Next, `Cc1cccc(-n2ncc(C(=O)N3CCN(c4ccc(Cl)cc4)CC3)c2C2CCN(C(=O)OC(C)(C)C)CC2)c1`: inactive: 105%.
Next, `Cn1nc(C(=O)NCc2ccc(Cl)cc2)c2c1-c1ccccc1S(=O)(=O)C2`: inactive: 87%; `Cc1ccc(OCc2nc(-c3ccc(C(=O)N4CCN(c5ccccc5F)CC4)cc3)oc2C)cc1`: inactive: 71%.
In the case of `CCNC(=S)N1CCC(C(=O)c2ccc(Cl)cc2)CC1`, the survival was inactive: 96%.
The same measure for `COc1ccc(C2C(C#N)=C(N)Oc3c2ccc2cccnc32)cc1` (stereo not drawn): inactive: 106%.
The same measure for `COc1ccc(OC)c(CNC(=O)c2cc3c(-c4ccc(OC)c(OC)c4)nn(C)c3s2)c1`: inactive: 80%; for `CCc1ccc2nc(N(CCN(CC)CC)C(=O)c3ccco3)sc2c1`: inactive: 53%.
The same measure for `Cc1ccc(NC(=O)c2ccc(-c3cccc(Cl)c3C)o2)cc1`: active: 1%; for `CCCCCn1c(=O)[nH]c2cc(C(=O)Nc3cc(C)cc(C)c3)ccc2c1=O`: inactive: 68%.
For the compound `CN(C)S(=O)(=O)N(CC(=O)NCCSCc1ccccc1)c1ccccc1`, the survival is inactive: 68%.
The same measure for `C=CCNC(=O)CSc1nc(-c2ccco2)cc(C(F)(F)F)n1`: inactive: 107%.
As for `CC[n+]1c(C)oc2ccc(OC)cc21`, the survival was inactive: 95%.
The same measure for `COc1ccc(Cl)cc1NC(=O)c1cc(S(=O)(=O)NC2CCCCCC2)ccc1F`: inactive: 83%; for `Cc1ccc(C)c(NC(=O)CN2CCCN(Cc3cccc(Cl)c3)S2(=O)=O)c1`: inactive: 76%.
With `Cc1cccc(N2C(=O)N(CC(=O)C(C)(C)C)c3ccccc3S2(=O)=O)c1C`, the survival is inactive: 55%.
Next, `Cc1cc(OC(C)C(=O)Nc2c(C(=O)c3ccc(F)cc3)oc3ccccc23)ccc1Cl` (stereo not drawn): inactive: 68%; `Cc1cccc(NC(=O)CSc2cn(CC(=O)N3CCCCCC3)c3ccccc23)c1`: inactive: 107%.
The same measure for `CCc1ccc(Sc2cc(C(=O)NCc3ccccc3OC)c3ccccc3n2)cc1`: inactive: 68%.
Next, `CCOc1ccc(N2CC(NC(=O)C(=O)c3c[nH]c4ccccc34)CC2=O)cc1` (stereo not drawn): inactive: 93%; `CCn1c(=O)cc(SCC(=O)NCc2ccc(F)cc2Cl)c2ccccc21`: inactive: 91%; `CCc1ccc(Sc2cc(C(=O)NCc3cccc(OC)c3)c3ccccc3n2)cc1`: inactive: 69%.
With `COc1ccc(C2NC(=O)N(C)C3=C2C(=O)N(c2cccc(Cl)c2)C3)cc1` (stereo not drawn), the survival was inactive: 75%.
The same measure for `COC(=O)c1ccc(OCC2c3cc(OC)c(OC)cc3CCN2C(=O)Cc2ccc(OC)cc2)cc1` (stereo not drawn): inactive: 71%.
Next, `O=C(NCCCc1ccccc1)c1nn(-c2ccccc2F)nc1CO`: inactive: 89%.
Next, `COc1cccc(CNC(=O)c2c(C)nn(-c3cccc(C)c3)c2-n2cccc2)c1`: inactive: 71%; `O=C(NCCc1ccccc1)c1ccc(CSc2nc3cccnc3n2Cc2ccc(F)cc2)cc1`: inactive: 90%.
`CCOC(=O)CSc1nnc(-c2ccccc2NC(=O)c2ccccc2)o1`: the survival was inactive: 108%.
The same measure for `Cc1nc(-c2ccc(C)c(N3CCN(C(=O)Nc4ccccc4C(F)(F)F)CC3)c2)no1`: inactive: 69%.
For the compound `CC(=O)c1ccc(NC(=O)C2CCC(CNS(=O)(=O)c3ccc(Br)s3)CC2)cc1` (stereo not drawn), the survival was inactive: 66%.
Next, `O=C(NC(=O)c1cccc(F)c1)Nc1ccc(-c2cc(C(F)(F)F)nn2-c2ccccc2)cc1`: inactive: 130%; `Cc1ccc(C(=O)Nc2nnc(S(=O)(=O)N3CCOCC3)s2)cc1`: inactive: 68%.
The same measure for `CCC(C)(C)n1nnnc1C(C(C)C)N(Cc1cccnc1)Cc1ccco1` (stereo not drawn): inactive: 120%; for `COC(=O)c1ccc(NC(=O)C2(S(=O)(=O)c3ccc(C)cc3)CC2)cc1`: inactive: 133%.
Regarding `Cc1cc(Cl)nc2ccc(Cl)cc12`, the survival was inactive: 94%.
`COC(=O)c1sc(-c2ccccc2)cc1NC(=O)c1cccc(F)c1`: the survival was inactive: 87%.
Next, `Cc1ccc(CN2CCCn3nc(C(=O)NCCC(C)C)cc3C2=O)cc1`: inactive: 101%.
Next, `O=C(NCc1ccc(F)cc1)C1CCN(C(=O)c2ccc(-n3ccc4ccccc43)s2)CC1`: inactive: 59%.
The same measure for `COc1cc2c(cc1OC)C1=C(C#N)CN(C3CCCCC3)CN1CC2`: inactive: 103%; for `Cc1ccc(S(=O)(=O)N2CCC(Oc3ccc(-n4cnnn4)cc3)CC2)cc1`: inactive: 86%; for `COc1ccc(CC(=O)Nc2ccc3nc(Nc4cccc(Cl)c4)cc(C)c3c2)cc1OC`: inactive: 64%.
Take `COc1ccccc1-n1cc(-c2ccc(C)cc2)nc1S(=O)(=O)CC(=O)Nc1ccccc1C(F)(F)F`: the survival is inactive: 129%.
Consider `COc1ccc(CNCCSc2nnnn2-c2ccccc2)cc1`, for which the survival is inactive: 83%.
Next, `C1=CCC(CN2CCN(CC3CC4C=CC3C4)CC2)CC1` (stereo not drawn): inactive: 109%.
For `COc1ccc(CCNC(=O)c2ccc3c(c2)N(Cc2cccc(C)c2)C(=O)c2ccccc2S3(=O)=O)cc1OC`, the survival was inactive: 101%.
